# Assay results taken from the supplement of paper PMC11417369.
# ± gives the standard deviation of the averaged measurements. The list shows a part of the results.
# Test system: PfAP2-LT AP2 domain (GST-tagged)
# Assay: gcPBM binding intensity (ln(normalized median fluorescence intensity)); higher = stronger DNA binding
# Outline: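 GST-tagged P. falciparum DNA-binding domains produced in E. coli were incubated for 1 h on an Agilent 4 × 180k array of primer-extended double-stranded 36-bp intergenic genomic probes with negative controls. Binding intensity is the highest Masliner-normalised natural-log median intensity across replicate spots of either probe orientation, with bound protein detected by Alexa488 anti-GST antibody at 488 nm.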
row,Sequence,gcPBM binding intensity (ln)
1,ACAAAAAAATATTTATGTACTTATTATATTTATAAT [XGTACX_site2059],8.49 ± 0.54
2,CTTTTTACTTAATACACACACACACTAAAAAAAAAA [CACACA_site6574],9.39 ± 0.16
3,ATAAAGAAATTACACACATGCAATGAAAAAAAAAAA [TGCATGCA_site406],9.12 ± 0.46
4,ATATATATTATATATGCATGCCAAATCTTTATAAAC [TGCATGCA_site1042],8.98 ± 0.44
5,ATATGTATAAAAATCCGTACATAAGTGTGCGTATAT [XGTACX_site4376],8.98 ± 0.36
6,ATGTTTGAGCCTAAGGTGCATATAAAAATATATGTG [GTGCAC_site9690],8.74 ± 0.49
7,ATAAATAATATGTAAACACACAAAAAATAAAAATGA [CACACA_site1178],9.17 ± 0.51
8,TACTAAGAAGTATTTACACACCAACAAGGCGAAAAA [CACACA_site2944],8.88 ± 0.44
9,ATATTTTGTTATGAAACACACACATATATATATATA [CACACA_site9216],9.305 ± 0.0071
10,AAAAAAAAAAGAAATTGTACTTTTTGTTTAATAATT [XGTACX_site4681],8.26 ± 0.52
11,TTGAGCCTACAAAAGGGTACACATTCAATTTATTTT [XGTACX_site6570],8.76 ± 0.48
12,ATTCCAGAAATATATTAACAAGGAAAATATAAAAAT [CACACA_negctrl_site343],8.65 ± 0.48
13,ATAAAATGATGTATCTGTGTATGTTTATTTTGTTTT [XGTACX_negctrl_site367],8.93 ± 0.44
14,TATTTCAAACTGTTCTCACACACGAAATTAGAAATG [CACACA_site611],8.82 ± 0.34
15,ATTATATACAAATAAAGTACATAAACAAATTCAGAA [XGTACX_site1187],8.89 ± 0.47
16,TCAAAATATCCAAAAGAATAAAGAAAAAAAAAAAGA [CACACA_negctrl_site1377],8.6 ± 0.39
17,TTTTTATAAATAATAAGGCGTATGAAAATAAAATAA [TGCATGCA_negctrl_site421],8.41 ± 0.4
18,TCAAATTTAATCATAACACACATTCACATATGAATT [CACACA_site3199],8.81 ± 0.4
19,ATATAACATTGTTTTGCATGTAAATATTCAATTTTT [TGCATGCA_site758],8.62 ± 0.41
20,ATATAATGAAGTGAATGTACATATAAAATGTAAAAA [XGTACX_site8052],9.12 ± 0.59
21,AAAAAAAAAAAACACACACACAAATACAAATACATA [CACACA_site415],9.99 ± 0.38
22,TAGTATAATATATATTGTACGTTTTAATTGTTTATA [XGTACX_site2731],8.61 ± 0.45

row,Sequence,gcPBM binding intensity (ln)
1,GAAACGTTTTTTCAGTGTACATTTTACCGATTTGTA [XGTACX_site8249],8.88 ± 0.42
2,TAAAGCAACTGAAACACACAAATTTTTTTTTTTTTT [CACACA_site7499],8.77 ± 0.39
3,AAACTGAAAAAAATATGTACATATTTATATCTTATA [XGTACX_site3011],8.61 ± 0.46
4,ATTGTATAAAAATGTACATGCAATAAATTTAGTTCT [TGCATGCA_site675],8.77 ± 0.42
5,TATATAAGAATATATACACACATATCTGTATTTATA [CACACA_site5231],8.88 ± 0.39
6,AAAAAAACAGAAAACACACAAATTATCTTATAATTA [CACACA_site6282],8.75 ± 0.52
7,TTATTAACGGAACTCTGTACTTAAAAAATTTTAGAA [XGTACX_site8787],8.21 ± 0.52
8,ATTGTTTCATTAAAATGTACATAAATTGTGTATAAT [XGTACX_site5341],8.65 ± 0.41
9,GAGTTTATATTTTAAGCATGCATATGTTATTATTAT [TGCATGCA_site1049],9.03 ± 0.41
10,TATATCAAAAACGAGACATGCATGCCGTTCATTTTG [TGCATGCA_site211],8.82 ± 0.38
11,TCTTTTTTGAAGCATTTTGTTTTTTAATAAGTAAAA [TGCATGCA_negctrl_site247],8.18 ± 0.35
12,AATAAAATAAAAAAAAATAAAAAAAAAATAAAAAAT [XGTACX_negctrl_site245],8.77 ± 0.67
13,TATATATATATTTAATGTACATGTTTATTTTATCAT [XGTACX_site499],8.9 ± 0.42
14,TTTATAAAGGGAAAGGTGCAAAAGGTGAAAGTTTTA,8.77 ± 0.59
15,TATTTTTCTTTTTAAGTGCATGGTTGTATAAAATTT [GTGCAC_site9480],8.59 ± 0.4
16,CACAGACACCCATACACACACATACCCATATATATA [CACACA_site5023],9.56 ± 0.34
17,ATTTTATTTAAATACACACACATATATATATTATAT [CACACA_site4607],9.21 ± 0.31
18,AATTATCAGGAATGATGTACTGAAATAAAAAAAAAA [XGTACX_site3280],8.62 ± 0.47
19,CTACATATGTATAATATGCACACGTCATTTTCCCCT [CACACA_site2107],9.24 ± 0.47
20,ACACAAAAATGAAAAATGAAAAGGGTAATATATATA [CACACA_negctrl_site1490],8.97 ± 0.52
21,AAAAAAAAAAAAAAAGCACACATCATATTTTAATTC [CACACA_site9109],8.87 ± 0.28
22,AGTATTATTTACTGCGCATGCTATTTATATATATTA [TGCATGCA_site876],9.07 ± 0.38
